± gives the standard deviation. The list shows a part of the results, in another mix than the full data.

For the assay, the system named is MIWI (PIWIL1) piRISC loaded with piRNA #1 (30 nt). The assay can be described thus: pre-steady-state target cleavage rate (min^-1); MIWI and MILI are mouse PIWI proteins and EfPiwi is from a freshwater sponge; tags in brackets are library labels; higher = faster piRNA-guided slicing of the target. Particulars: guide: piRNA #1 5'p-UGAGGUAGUAGGUUGUAUAGUAUCCAGAGG; auxiliary factor: 500 nM mouse GTSF1. A digest of the protocol: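 Cleave-'n-Seq reactions paired 0.1 nM transcribed, DNA-blocked target RNA library with 1 nM active affinity-purified piRISC holding one synthetic guide, plus or minus 500 nM GTSF1 partner protein, in HEPES–potassium acetate buffer at 33 °C for 0–8 or 0–960 min. After sequencing of uncleaved targets and normalisation to depth and weakly complementary targets, the pre-steady-state cleavage rate was taken from a burst-and-steady-state fit. Three trials were pooled, and k3 was capped at 0.0001 min^-1.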
On to GCUCUGGAUACUAUACAAGCUACUACCUGA, for which the “pre-steady-state target cleavage rate” value was 0.873 ± 0.057.

As to GCACUGGAUACUAUACUACCUACUACCUCA, the “pre-steady-state target cleavage rate” value stood at 1.59 ± 0.1.

GGAGUGGUUACUAUACAACCUACUACCUCA: the “pre-steady-state target cleavage rate” value came to 1.62 ± 0.087.

As for GGAGACCUAUCUAUAACAACCUACUACCUCA, the “pre-steady-state target cleavage rate” value was found to be 0.108 ± 0.02.

Regarding GGAGACGAUGCUAUACAACCUACUACCUCA, the “pre-steady-state target cleavage rate” value was 1.98 ± 0.14.

With GGAGACCUAUGUAUACAACCUACAUCCUCA, the “pre-steady-state target cleavage rate” value amounted to 0.00443 ± 0.0022.

For GGAGACCUUACUAUACAACCUAGUUCCUCA, the “pre-steady-state target cleavage rate” value stood at 0.0816 ± 0.014.

Turning to GGAGACCUAUGUAUACAACCUACUACGAGA, the “pre-steady-state target cleavage rate” value turned out to be 0.00638 ± 0.0053.

Turning to GGAGUGGAUACUAUACAUCCUACUAGCUCA, the “pre-steady-state target cleavage rate” value amounted to 0.132 ± 0.019.

GCUGUGGUUACUAUACAACCUACUACCUCA: the “pre-steady-state target cleavage rate” value came to 2 ± 0.13.

Consider GGUCUGGAUACAAUACAACCUACAACCUCA, for which the “pre-steady-state target cleavage rate” value came to 0.583 ± 0.051.

Regarding GGAGACCUAACUAUGCAACCUACUACCUCA, the “pre-steady-state target cleavage rate” value is 0.715 ± 0.066.

With GGAGUGGAUACUAUACAAGCUACUACCUGA, the “pre-steady-state target cleavage rate” value was found to be 0.267 ± 0.031.

Consider GGAGAGGAUACUAUUCAACGUACUACCUCA, for which the “pre-steady-state target cleavage rate” value was 0.114 ± 0.017.

Turning to GGUCUGGAUACUAUAGAUCCUACUACCUCA, the “pre-steady-state target cleavage rate” value turned out to be 0.944 ± 0.072.

As to CCUGUGGAUUCUAUACAACCUACUACCUCA, the “pre-steady-state target cleavage rate” value worked out at 1.87 ± 0.1.

On to GCUCUGGAUUCUAUACAACCUUCUACCUCA, for which the “pre-steady-state target cleavage rate” value amounted to 0.516 ± 0.027.

Consider GGUCUGGAUAUUAUACAACCUACUACCUCA, for which the “pre-steady-state target cleavage rate” value was found to be 1.98 ± 0.12.

On to GGACUGGAAACUAAACAACCUACUACCUCA, for which the “pre-steady-state target cleavage rate” value amounted to 0.844 ± 0.099.

For the sequence GGAGACCUUACUAUACAUCCUUCUACCUCA, the “pre-steady-state target cleavage rate” value came to 0.163 ± 0.015.

On to GGAGACCUAACUAUACUAACCUACUACCUCA, for which the “pre-steady-state target cleavage rate” value is < 0.0001.

Consider GGAGUCGAUACUAUACAACCAACUACCUCA, for which the “pre-steady-state target cleavage rate” value amounted to 0.115 ± 0.01.

As to GGAGACGAUACUGUACAACCUACUACCUCA, the “pre-steady-state target cleavage rate” value was determined as 0.895 ± 0.054.

For GGACUGGAUACUAUACAUCCUAGUACCUCA, the “pre-steady-state target cleavage rate” value was determined as 0.318 ± 0.068.

As to GCUCUGGAUACUAUACAACGUUCUACCUCA, the “pre-steady-state target cleavage rate” value worked out at 0.146 ± 0.015.

With GGUCUCGAUACUAUACAACCUUCUACCUCA, the “pre-steady-state target cleavage rate” value came to 0.707 ± 0.036.

With GGAGUGGAUACUAUAGAACCUACAACCUCA, the “pre-steady-state target cleavage rate” value was determined as 0.00343 ± 0.0028.

On to GGAGACCUAUCUAUACAACCUACUACCCCA, for which the “pre-steady-state target cleavage rate” value was determined as 0.738 ± 0.073.

Regarding GGAGACCAUACUAUACAACCUACUUCGUCA, the “pre-steady-state target cleavage rate” value worked out at 0.345 ± 0.054.

Consider GGACUGGAUACUAUACUACCUACUUCCUCA, for which the “pre-steady-state target cleavage rate” value is 0.0485 ± 0.0093.

Take GCUCUGGAUACUAUACAGCCUACUACCUCA: the “pre-steady-state target cleavage rate” value turned out to be 0.729 ± 0.03.

In the case of GGAGACGAUACUAUACAACCUACUUACCUCA, the “pre-steady-state target cleavage rate” value was 1.41 ± 0.078.

Turning to GGAGACGAUACUAUACAACCUAUUACCUCA, the “pre-steady-state target cleavage rate” value was found to be 1.6 ± 0.12.

Turning to GCUCUGGAUACUAUACAACCUAGUACCACA, the “pre-steady-state target cleavage rate” value worked out at 0.255 ± 0.057.

Turning to GGAGACGAUAGUAUACAUCCUACUACCUCA, the “pre-steady-state target cleavage rate” value worked out at 0.848 ± 0.058.

In the case of GGAGACCUAUGAUAUGAAGCCUACUACCUCA, the “pre-steady-state target cleavage rate” value is < 0.0001.

Consider “GGAGACGAUACUAUACAACCUACUAGGAGA [g6:g24:cont:t1A]”, for which the “pre-steady-state target cleavage rate” value amounted to 0.00718 ± 0.0049.

Consider GGAGAGGAUACAAUAGAACCUACUACCUCA, for which the “pre-steady-state target cleavage rate” value came out at 0.93 ± 0.051.

On to CCUCUGGAUACUUAUCAACCUACUACCUCA, for which the “pre-steady-state target cleavage rate” value turned out to be 1.11 ± 0.11.

Regarding CCUCUGGAUAUUAUACAACCUACUACCUCA, the “pre-steady-state target cleavage rate” value amounted to 2.15 ± 0.12.

The values are drawn from the supplement of paper PMC10338343.
